Reference: the supplement of paper PMC12217912
The other results are listed elsewhere or left out. The full chains were built here from the parent and the listed change. Values near 0.05 are background.

B1: TEV protease; numbered along this chain (parent)
chain: MGESLFKGPRDYNPISSSICHLTNESDGHTTSLYGIGFGPFIITNKHLFRRNNGTLVVQSLHGVFKVKDTTTLQQHLVDGRDMIIIRMPKDFPPFPQKLKFREPQREERICLVTTNFQTKSMSSMVSDTSCTFPSGDGIFWKHWIQTKDGQCGSPLVSTRDGFIVGIHSASNFTNTNNYFTSVPKNFMELLTNQEAQQWVSGWRLNADSVLWGGHKVFMVKPEEPFQPVKEATQL

Variants of: B1
Assay: raw area under fraction-flipped curve 0-4 h after induction (AUC4h, not background-subtracted), DNA-recorder readout of cleavage of the substrate (dimensionless); higher = more cleavage of the substrate by the protease variant
Details: temperature: 34 °C; time window: 0-4 h after rhamnose induction
Description: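 In vivo DNA recorder in E. coli TOP10(DE3) ΔrhaA at 34 °C. Each TEVp single-site mutant (parent TEVp 0) is paired with a single-site variant of the 7-mer TEVs (canonical ENLYFQ|S). The substrate sits between flexible linkers in a Bxb1-sfGFP-TEVs-SsrA fusion, so cleavage stabilises Bxb1 and speeds flipping of a recombination array, read by NGS. The value is the raw area under the fraction-flipped curve over 0-4 h after rhamnose induction (AUC4h), with ≥20 reads per time point. It is not background-subtracted; inactive controls average about 0.047.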
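Further: Bxb1 expression induced with 0.2% (w/v) L-rhamnose at OD600 near 0.5, cultures sampled hourly, flipped fraction per protease–substrate barcode pair counted by paired-end Illumina sequencing.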

Row | Variant | area with substrate EALYFQS | area with substrate ECLYFQS | area with substrate EDLYFQS | area with substrate EELYFQS | area with substrate EFLYFQS | area with substrate EGLYFQS | area with substrate EHLYFQS | area with substrate EILYFQS | area with substrate EKLYFQS | area with substrate ELLYFQS | area with substrate EMLYFQS | area with substrate EPLYFQS | area with substrate EQLYFQS | area with substrate ERLYFQS | area with substrate ESLYFQS | area with substrate ETLYFQS | area with substrate EVLYFQS | area with substrate EWLYFQS | area with substrate EYLYFQS
1 | I145T | 0.102 | 0.138 | 0.182 | 0.079 | 0.162 | 0.104 | 0.109 | 0.121 | 0.109 | 0.0835 | 0.119 | 0.176 | 0.113 | 0.0852 | 0.0949 | 0.123 | 0.101 | 0.079 | 0.115
2 | P104H | 0.0564 | 0.0429 | 0.0463 |  |  | 0.0408 |  | 0.042 |  | 0.053 | 0.0419 |  | 0.0367 | 0.0462 | 0.0256 | 0.0444 |  | 0.057 | 0.0658
3 | P104R | 0.0757 | 0.0527 |  | 0.0444 | 0.0706 | 0.0388 | 0.0484 | 0.0521 | 0.0548 | 0.0528 |  | 0.0502 |  |  | 0.0576 | 0.0637 | 0.047 | 0.0583 | 
4 | P104V | 0.115 | 0.0896 |  |  | 0.0808 | 0.0627 | 0.102 | 0.105 | 0.0933 |  | 0.097 | 0.0947 | 0.0939 | 0.072 | 0.0842 | 0.0763 | 0.0793 | 0.0621 | 0.0961
5 | P104C | 0.0915 | 0.114 | 0.115 | 0.102 | 0.074 |  | 0.104 | 0.0752 | 0.0823 | 0.0778 | 0.0906 | 0.095 | 0.0903 | 0.0784 | 0.1 |  | 0.078 | 0.115 | 
6 | D128S | 0.2 | 0.139 |  | 0.211 |  | 0.139 |  | 0.175 | 0.192 | 0.122 | 0.15 | 0.172 | 0.168 | 0.167 | 0.162 | 0.177 | 0.123 |  | 0.134
7 | D128Q | 0.123 | 0.144 |  | 0.132 | 0.123 | 0.121 |  | 0.106 | 0.127 |  | 0.157 |  | 0.168 | 0.133 | 0.127 | 0.142 | 0.0677 | 0.11 | 0.142
8 | S127T | 0.102 | 0.151 | 0.1 | 0.122 | 0.059 | 0.0927 | 0.0891 | 0.0994 | 0.11 | 0.11 | 0.103 | 0.151 |  | 0.0904 | 0.104 |  | 0.105 | 0.0902 | 
9 | T132M | 0.107 | 0.098 | 0.117 | 0.104 | 0.12 | 0.104 | 0.0978 | 0.0987 | 0.117 | 0.0917 | 0.116 | 0.0999 | 0.106 | 0.0971 | 0.112 | 0.106 | 0.0878 | 0.0486 | 0.121
10 | T132D | 0.0624 | 0.0509 | 0.056 | 0.0634 | 0.0614 | 0.0555 | 0.0587 | 0.0384 | 0.0631 | 0.056 | 0.0473 | 0.0607 | 0.0501 | 0.0652 | 0.0594 | 0.0593 | 0.0563 | 0.054 | 
11 | V126T | 0.113 | 0.104 | 0.0857 | 0.109 |  | 0.0764 | 0.112 | 0.0958 | 0.123 |  |  |  | 0.145 | 0.101 | 0.0981 |  |  | 0.139 | 0.111
12 | T115M | 0.0899 | 0.101 | 0.124 | 0.112 | 0.133 |  | 0.0852 | 0.0838 |  |  | 0.107 | 0.124 | 0.113 |  | 0.101 | 0.107 |  | 0.102 | 
13 | P96W | 0.111 | 0.0914 |  | 0.0957 | 0.0902 | 0.0733 | 0.088 | 0.11 | 0.0986 |  |  | 0.0995 |  | 0.0685 | 0.0913 |  | 0.0737 |  | 
14 | P96R | 0.115 |  |  |  |  |  |  | 0.118 | 0.0992 | 0.0746 |  |  | 0.14 |  | 0.102 |  | 0.0935 |  | 
15 | P96T | 0.0879 | 0.0814 |  | 0.131 |  |  |  |  |  |  | 0.0814 |  | 0.102 | 0.0601 | 0.0964 |  |  |  | 
16 | K142Y | 0.105 | 0.104 | 0.129 |  |  |  |  | 0.0873 | 0.107 | 0.0869 | 0.0978 |  |  | 0.0913 | 0.0889 |  |  |  | 0.0881
17 | T119I | 0.0174 |  |  | 0.128 |  |  |  |  | 0.142 | 0.0987 |  |  | 0.136 | 0.0751 | 0.0928 |  | 0.104 | 0.067 | 0.115
18 | F117V | 0.109 | 0.105 | 0.0979 | 0.123 | 0.115 | 0.138 | 0.119 | 0.0975 | 0.111 | 0.0822 | 0.116 | 0.114 | 0.117 | 0.108 | 0.13 | 0.122 | 0.115 | 0.0925 | 0.125
19 | P134Y | 0.0894 | 0.0737 | 0.0974 | 0.0383 | 0.0753 | 0.068 | 0.0749 | 0.0819 | 0.0592 | 0.0644 |  | 0.0808 | 0.0884 | 0.0643 | 0.0811 | 0.0646 | 0.12 | 0.0339 | 0.0738
20 | P134C | 0.0968 | 0.0781 | 0.106 | 0.0998 | 0.0895 | 0.0735 | 0.0955 | 0.0264 | 0.075 | 0.0648 | 0.088 |  | 0.0945 | 0.0783 | 0.084 |  | 0.086 | 0.0744 | 0.0851
21 | P134T | 0.096 |  |  |  |  |  | 0.0854 |  |  |  |  |  |  | 0.0771 | 0.0875 | 0.0606 | 0.0852 | 0.0959 | 
22 | W141S | 0.0484 | 0.0583 | 0.056 | 0.0504 | 0.0496 | 0.0554 | 0.0654 | 0.0613 | 0.0812 | 0.0976 | 0.0556 | 0.0674 |  |  | 0.0579 |  | 0.0516 | 0.0575 | 0.0591
23 | M125D | 0.121 | 0.092 | 0.105 | 0.118 | 0.106 | 0.0803 | 0.0985 | 0.085 | 0.0966 | 0.094 | 0.103 |  | 0.105 |  | 0.114 | 0.093 | 0.0961 |  | 
24 | I110V | 0.121 | 0.0696 | 0.124 | 0.14 | 0.0952 | 0.0862 | 0.105 | 0.0658 | 0.103 | 0.0961 | 0.135 |  |  | 0.101 | 0.0996 |  | 0.0996 | 0.0913 | 0.0911
25 | K98W | 0.183 | 0.117 | 0.121 | 0.118 | 0.0887 | 0.0957 | 0.0945 | 0.0969 | 0.111 | 0.0841 |  | 0.121 | 0.118 | 0.0968 | 0.111 |  | 0.099 | 0.102 | 
